# According to the supplement of paper PMC8728848:
# Some of the results follow.
# B1: Epa1-NP-mutant-Y228W (Candida glabrata), Q6VBJ0 (protein)
# chain: MILNPALFLNKCVCIYTTLILLLLTNGGYATSSNDISLASKDPTTFPLGCSPDITTPKKGLSMELYSYDFRKKGSYPCWDAAYLDPNYPRTGYKSHRLLAKVDGVTGNINFYYHATKGCTPQLGHLPASYNYPKPLTMTNFTMLLYGYFRPKVTGFHTFTISADDLLFVNFGAGNAFDCCRRDSSADHFGNYQAYAIWGSKTAKDELTVHLDAGVYYPIRLFYNNREWDGALSFTFKTESNENTVSDFSEYFFSLDDTEEGCPGLISYDSSCASVKTSKIIGIDYHTETPNENLVPITKTIYHLGIPCTGTTTTPLCGSGFYDPLANKCVTINTSSTSSVTKTTSHTTSKEVSFHSSISSQKTLIPKSIPSPYGPIKSQSIPTEMETSSEISSSEYAFSDVISTPSHSPYTKKHSSLNSSSYTSTVIHSLTSYSISQGIFSTSLSEQNITSKSSTDKFSTATSMSNNITQSSIIISQFSTNNENYTTTSMHTSSDKISTETLNNSISTTTSILFSNSSTILKNNTTIISSDKDTHYHPVNPTIVCSTNKTEIICASITQPSISNSNNHWSSSVLKFNSTTVRSTLPSSAGSNETSINVPFSSSTESNTSTSSTSTSNSKMVRSTLPSSAGSNETSISVPFSSSTESNTSTSSTSTSNSKMVRSTLPSSAGSNETSINVPFSSSTESNTSTSSTSTSNSKTVRSTPFSSAGIIMTSLSQRNNKSASSYASSNSKCYNTADSCRKVHSTPSYLLTSSYTSEGVDYDCSLVSTKLKINDTNCVNNKHTTKSCLKTSVTTTIPTLEIKTARKSSSNTIGLHSYPTSSPNKSISSAPIIGYISSFKTIKTASPSYQTSDLTTITTITSLNNPGSTAVENTHESNDKSRKTSSNDISSKHSVIKETKDAVESSNKSHQTNTLKCSSIIIASSSHNSYESLGGTTLTLTLSKVYSPQNNDTLPFLEISEVNPSRTVLPESSKMMQYLTSTEERNKTARNTIATNIVSISTFHFEGEGNAIRMGYTQLLLMLIGIIVMNIGT
# Assays:
# Test in all cases: glycan array binding signal (z-score within array); higher = stronger binding
# Conditions in all cases: glycan notation: IUPAC condensed, linker removed; mutation: Y228W
# [1] = target: Neu5Ac(a2-3)Gal(b1-3)GlcNAc(b1-6)GalNAc
# How it was run: (§1)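 Arrays were curated from the Consortium for Functional Glycomics database, 3228 in total, and kept only where the protein sequence was available. Binding is expressed as a within-array Z-score. This score was averaged across arrays of the same protein sequence at different concentrations or buffers and across linkers, and negative values can be read as non-binding.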
# [2] = target: Neu5Ac(a2-3)Gal(b1-3)GlcNAc6S
# How it was run: as §1
# [3] = target: Neu5Ac(a2-3)Gal(b1-3)[Fuc(a1-4)]GlcNAc
# How it was run: as §1
# [4] = target: Neu5Ac(a2-3)Gal(b1-3)[Fuc(a1-4)]GlcNAc(b1-3)Gal(b1-3)[Fuc(a1-4)]GlcNAc
# How it was run: as §1
# [5] = target: Neu5Ac(a2-3)Gal(b1-3)[Fuc(a1-4)]GlcNAc(b1-3)Gal(b1-4)[Fuc(a1-3)]GlcNAc
# How it was run: as §1
# [6] = target: Neu5Ac(a2-3)Gal(b1-3)[GlcNAc(b1-6)]GalNAc
# How it was run: as §1
# [7] = target: Neu5Ac(a2-3)Gal(b1-3)[Neu5Ac(a2-6)]GalNAc
# How it was run: as §1
# [8] = target: Neu5Ac(a2-3)Gal(b1-3)[Neu5Ac(a2-6)]GlcNAc(b1-3)[Fuc(a1-3)[Gal(b1-4)]GlcNAc(b1-6)]Gal(b1-4)Glc
# How it was run: as §1
# [9] = target: Neu5Ac(a2-3)Gal(b1-3)]Neu5Ac(a2-3)Gal(b1-4)]GlcNAc
# How it was run: as §1
# Neu5Ac(a2-3)Gal(b1-4)Glc = target: Neu5Ac(a2-3)Gal(b1-4)Glc
# How it was run: as §1
# [10] = target: Neu5Ac(a2-3)Gal(b1-4)GlcNAc
# How it was run: as §1
# [11] = target: Neu5Ac(a2-3)Gal(b1-4)GlcNAc(b1-2)Man
# How it was run: as §1
# [12] = target: Neu5Ac(a2-3)Gal(b1-4)GlcNAc(b1-2)Man(a1-3)[GlcNAc(b1-4)][Neu5Ac(a2-3)Gal(b1-4)GlcNAc(b1-2)Man(a1-6)]Man(b1-4)GlcNAc(b1-4)GlcNAc
# How it was run: as §1
# [13] = target: Neu5Ac(a2-3)Gal(b1-4)GlcNAc(b1-2)Man(a1-3)[Neu5Ac(a2-3)Gal(b1-4)GlcNAc(b1-2)Man(a1-6)]Man(b1-4)GlcNAc(b1-4)GlcNAc
# How it was run: as §1
# [14] = target: Neu5Ac(a2-3)Gal(b1-4)GlcNAc(b1-2)Man(a1-3)[Neu5Ac(a2-3)Gal(b1-4)GlcNAc(b1-2)Man(a1-6)]Man(b1-4)GlcNAc(b1-4)[Fuc(a1-6)]GlcNAc
# How it was run: as §1
# [15] = target: Neu5Ac(a2-3)Gal(b1-4)GlcNAc(b1-2)Man(a1-3)[Neu5Ac(a2-6)Gal(b1-4)GlcNAc(b1-2)Man(a1-6)]Man(b1-4)GlcNAc(b1-4)GlcNAc
# How it was run: as §1
# [16] = target: Neu5Ac(a2-3)Gal(b1-4)GlcNAc(b1-2)[Neu5Ac(a2-3)Gal(b1-4)GlcNAc(b1-4)]Man(a1-3)[GlcNAc(b1-4)][Neu5Ac(a2-3)Gal(b1-4)GlcNAc(b1-2)[Neu5Ac(a2-3)Gal(b1-4)GlcNAc(b1-6)]Man(a1-6)]Man(b1-4)GlcNAc(b1-4)GlcNAc
# How it was run: as §1
# [17] = target: Neu5Ac(a2-3)Gal(b1-4)GlcNAc(b1-2)[Neu5Ac(a2-3)Gal(b1-4)GlcNAc(b1-4)]Man(a1-3)[GlcNAc(b1-4)][Neu5Ac(a2-3)Gal(b1-4)GlcNAc(b1-4)Man(a1-6)]Man(b1-4)GlcNAc(b1-4)GlcNAc
# How it was run: as §1
# [18] = target: Neu5Ac(a2-3)Gal(b1-4)GlcNAc(b1-2)[Neu5Ac(a2-3)Gal(b1-4)GlcNAc(b1-6)]Man(a1-6)[Neu5Ac(a2-3)Gal(b1-4)GlcNAc(b1-2)Man(a1-3)][GlcNAc(b1-4)]Man(b1-4)GlcNAc(b1-4)GlcNAc
# How it was run: as §1
# [19] = target: Neu5Ac(a2-3)Gal(b1-4)GlcNAc(b1-3)Gal
# How it was run: as §1
# [20] = target: Neu5Ac(a2-3)Gal(b1-4)GlcNAc(b1-3)Gal(b1-3)GlcNAc
# How it was run: as §1
# [21] = target: Neu5Ac(a2-3)Gal(b1-4)GlcNAc(b1-3)Gal(b1-4)GlcNAc
# How it was run: as §1
# [22] = target: Neu5Ac(a2-3)Gal(b1-4)GlcNAc(b1-3)Gal(b1-4)GlcNAc(b1-2)Man(a1-3)[Neu5Ac(a2-3)Gal(b1-4)GlcNAc(b1-3)Gal(b1-4)GlcNAc(b1-2)Man(a1-6)]Man(b1-4)GlcNAc(b1-4)GlcNAc
# How it was run: as §1
# [23] = target: Neu5Ac(a2-3)Gal(b1-4)GlcNAc(b1-3)Gal(b1-4)GlcNAc(b1-3)Gal(b1-4)GlcNAc
# How it was run: as §1
# [24] = target: Neu5Ac(a2-3)Gal(b1-4)GlcNAc(b1-3)Gal(b1-4)GlcNAc(b1-3)Gal(b1-4)GlcNAc(b1-2)Man(a1-3)[Neu5Ac(a2-3)Gal(b1-4)GlcNAc(b1-3)Gal(b1-4)GlcNAc(b1-3)Gal(b1-4)GlcNAc(b1-2)Man(a1-6)]GalNAc
# How it was run: as §1
# [25] = target: Neu5Ac(a2-3)Gal(b1-4)GlcNAc(b1-3)Gal(b1-4)GlcNAc(b1-3)GalNAc
# How it was run: as §1
# [26] = target: Neu5Ac(a2-3)Gal(b1-4)GlcNAc(b1-3)Gal(b1-4)GlcNAc(b1-3)[Neu5Ac(a2-3)Gal(b1-4)GlcNAc(b1-3)Gal(b1-4)GlcNAc(b1-6)]GalNAc
# How it was run: as §1
# [27] = target: Neu5Ac(a2-3)Gal(b1-4)GlcNAc(b1-3)Gal(b1-4)GlcNAc(b1-6)[Gal(b1-3)]GalNAc
# How it was run: as §1
# [28] = target: Neu5Ac(a2-3)Gal(b1-4)GlcNAc(b1-3)Gal(b1-4)[Fuc(a1-3)]GlcNAc
# How it was run: as §1
# [29] = target: Neu5Ac(a2-3)Gal(b1-4)GlcNAc(b1-3)GalNAc
# How it was run: as §1
binder,measurement,setting,value
B1,glycan array binding signal (z-score),[1],0.035
same,glycan array binding signal (z-score),[2],-0.071
same,glycan array binding signal (z-score),[3],-0.23
same,glycan array binding signal (z-score),[4],-0.315
same,glycan array binding signal (z-score),[5],0.021
same,glycan array binding signal (z-score),[6],-0.329
same,glycan array binding signal (z-score),[7],-0.207
same,glycan array binding signal (z-score),[8],-0.102
same,glycan array binding signal (z-score),[9],-0.097
same,glycan array binding signal (z-score),Neu5Ac(a2-3)Gal(b1-4)Glc,-0.082
same,glycan array binding signal (z-score),[10],-0.201
same,glycan array binding signal (z-score),[11],-0.205
same,glycan array binding signal (z-score),[12],-0.129
same,glycan array binding signal (z-score),[13],0.026
same,glycan array binding signal (z-score),[14],0.036
same,glycan array binding signal (z-score),[15],-0.29
same,glycan array binding signal (z-score),[16],-0.37
same,glycan array binding signal (z-score),[17],-0.359
same,glycan array binding signal (z-score),[18],-0.128
same,glycan array binding signal (z-score),[19],-0.181
same,glycan array binding signal (z-score),[20],-0.125
same,glycan array binding signal (z-score),[21],-0.227
same,glycan array binding signal (z-score),[22],-0.502
same,glycan array binding signal (z-score),[23],-0.303
same,glycan array binding signal (z-score),[24],0.581
same,glycan array binding signal (z-score),[25],-0.379
same,glycan array binding signal (z-score),[26],-0.19
same,glycan array binding signal (z-score),[27],-0.529
same,glycan array binding signal (z-score),[28],-0.295
same,glycan array binding signal (z-score),[29],-0.092
